Experimental findings from the RNAGym collection of RNA variant scans (doi:10.1073/pnas.2313332121) are described below.

Variants at the background level are over-represented here. A value given as a limit tells only on which side of the number the result lay.

Sequences and labels used below:
B1: TPR 5TU (parent)
chain: GGAUCUUCUCGAUCUAACAAAAAAGACAAAUCUGCCACAAAGCUUGAGAGCAUCUUCGGAUGCAGAGGCGGCAGCCUUCGGUGGCGCGAUAGCGCCAACGUUCUCAACUAUGACACGCAAAACGCGUGCUCCGUUGAAUGGAGUUUAUCAUG

In this data set the parent is B1. Briefly: polymerase ribozyme fitness, log enrichment relative to wild type (log ratio); higher = more active; in vitro selection for triplet polymerase activity. The gist of the method:
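Both subunits of a heterodimeric triplet polymerase ribozyme were given their own mutant library, built by PCR and transcribed. Each library was annealed with a biotinylated primer, the partner subunit and triplets, incubated frozen at −7 °C, and its extended constructs gel-excised, captured on streptavidin beads and amplified by RT-PCR, all in one round done in triplicate. Fitness is the logarithm of genotype enrichment relative to wild-type enrichment, with replicates averaged by inverse-variance weighting. That logarithm is base 2, and Illumina-sequenced genotypes needed ≥10 input reads and ≥1 read per output.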
Consider C5A A12C G42A G68C C79A G83A C108G, for which the “polymerase ribozyme fitness (log ratio)” value was at most -4.2.

For the variant U4G G84A U109A A115C C123A, the “polymerase ribozyme fitness (log ratio)” value is -2.01. As for A3G C10A A29G U82G G84A A137G, the “polymerase ribozyme fitness (log ratio)” value is at most -4.2. Consider C5A G11U A73G U82A G94C G143A, for which the “polymerase ribozyme fitness (log ratio)” value was at most -4.2. Under C5A C76A C85G G133C stands -2.61; under C5A G50A C87A A107G, at most -4.2; under U4G A40C A137G, -1.84. Under A3U A20C C27U A41C C69G U90C C105G stands at most -4.2.

Turning to A3U A20U C32A A66C G83U C96U U144C, the “polymerase ribozyme fitness (log ratio)” value was at most -4.2. With A3G G65A G67U G88U G136C U139C G143A, the “polymerase ribozyme fitness (log ratio)” value is at most -4.2. As for U4C A30U C72G C93G G140A, the figure is at most -4.2; as for A3U G84A, -1.14; as for A3U A30G A47C C87U A113G C118G, at most -4.2. As for A3U C18U A24U G48U A73G C85U U104G, the figure is at most -4.2; as for U4A G48C G50U G58U G83C C95G U101G G128U, at most -4.2. As to U4C C69A A73C C79A G81U G141U, the “polymerase ribozyme fitness (log ratio)” value was at most -4.2. As for U4A A26G A49C A107G, the figure is at most -4.2; as for U4A C5G G58A A73U C75U C85A G100A C105G U145A, at most -4.2. Under U4C C51U C76U G94A stands -1.51; under U4C A66C C87A U134C, at most -4.2.

For A3G A16U U53A C75U G92U, the “polymerase ribozyme fitness (log ratio)” value was -3.54. As for C5A C8U A19U G50C C76A C93U C105U C116G C149U, the figure is at most -4.2; as for C5A C85U G86C A119C A120C, -3.07; as for A3U A91U, at most -4.2. Consider U4G C51U G94A A106U U109G, for which the “polymerase ribozyme fitness (log ratio)” value is at most -4.2.

Consider A3U A16U C54U U55A C85U A98C C99U C129G, for which the “polymerase ribozyme fitness (log ratio)” value was at most -4.2. As for C5A A49U C57A, the figure is -0.832; as for C5A U6A G94U C123U U148G, at most -4.2. As for U4G A19G A23G G59U A66U G141C, the figure is at most -4.2; as for C5A A30G C57A C95G A106G, at most -4.2. For the variant U4G C14G C93G, the “polymerase ribozyme fitness (log ratio)” value was at most -4.2. Under U4G U56A C57A G59A G68A C96G stands at most -4.2; under A3U A22C U31C U61A, -2.45. As for U4A C5G U31G U56A G80C C87G C99G, the figure is at most -4.2.

Regarding U4G C35G A47G U111G U145A, the “polymerase ribozyme fitness (log ratio)” value was at most -4.2. Consider A3U U53A, for which the “polymerase ribozyme fitness (log ratio)” value was -1.77. Consider C5A A23C A29U U55G, for which the “polymerase ribozyme fitness (log ratio)” value was at most -4.2.

On to A3G G84C, for which the “polymerase ribozyme fitness (log ratio)” value was -1.98. Under U4G U77C G124U U135G U139A stands at most -4.2. As for C5A C85U, the figure is -0.371; as for C5A C14G A20G A30U G42A A64C G68C G84A U144A, at most -4.2. Under A3U U9C A24U A39U A52C A107G stands at most -4.2. Consider A3U C35G C93U G100A C105G G133C, for which the “polymerase ribozyme fitness (log ratio)” value is at most -4.2. As for A3G A20C A29U A41G C54U C87U C95U U135G, the figure is at most -4.2; as for U4G C18G G42A A73C A91G C95G C99G C118A, at most -4.2. With C5A U7C C18G U55A G58A A89C, the “polymerase ribozyme fitness (log ratio)” value is -1.54.

With A3U C79A A91G, the “polymerase ribozyme fitness (log ratio)” value was at most -4.2. As for U4C A21G C35A U55C A64C G94U G136A, the figure is at most -4.2; as for A3C U53A U55G C57G A64G C85G, at most -4.2; as for U4C A19G C76G G86U A89G A106C U134G, at most -4.2. Under A3G U4A C10U A30G C79A stands at most -4.2; under A3U C43A C57A G92A A138G G141U, at most -4.2; under A3U A21C C69A C76A G86A A89G A122G, at most -4.2. Under A3G C8A G11U G50U G100C G126U stands at most -4.2; under A3G A20U C27A G58C A60C U78G G83U G94A C132G G141A, at most -4.2.

As for U4G C14U A52U C63U C85U, the “polymerase ribozyme fitness (log ratio)” value is -4.13. Under A3G A41U C96U stands -1.56; under U4C C8G A24C G50U C75G C93G, at most -4.2.

Regarding A3G A21C C96G A110G C149A A150C, the “polymerase ribozyme fitness (log ratio)” value was at most -4.2. For the variant U4A C10U U104A A119U, the “polymerase ribozyme fitness (log ratio)” value is at most -4.2.

As to A3U U4G U55A A119C, the “polymerase ribozyme fitness (log ratio)” value was -1.29. With C5A A37U C51U U56A C79A C96G C116G G133C, the “polymerase ribozyme fitness (log ratio)” value was at most -4.2. Under A3U C96G stands -1.47; under U4A G11C C32A A39C G42C A47G G48C A60U G67C A110G, at most -4.2. Under A3U C5G C14U U44G G50C G74A C95G A97G A119G stands at most -4.2; under A3U U31A A49C G68U G92A C95G A137C, at most -4.2; under U4G A21G A52G G141A, -2.63.

In the case of U4C A23C U55G G94A G143U U148C, the “polymerase ribozyme fitness (log ratio)” value is at most -4.2. As for C5A A22C C87G U134C U146G, the figure is at most -4.2; as for A3U C35A G83A U148G, at most -4.2; as for U4A A16C C79G A91C, at most -4.2. Under A3U C85G C93G G136A A142C stands at most -4.2; under A3G A49C C51U G59C C95U C131G, at most -4.2; under A3G C14U G42C G59A C96U A122U U146C, at most -4.2.

C5A A12G A40U A47C C85G C96A U104A U151G: the “polymerase ribozyme fitness (log ratio)” value is at most -4.2. Under U4G A19G A73C C87U stands at most -4.2; under U4C C14U C75A C96A C129A, at most -4.2. As for A3G A21G A29G G59A G84A, the figure is at most -4.2.

Regarding A3C U13G C14A A29U G67C C93A A106G, the “polymerase ribozyme fitness (log ratio)” value was at most -4.2. As for A3U C14G U31C A52U G92C, the figure is at most -4.2; as for A3U C27U C38U C51G A73U C85U C93A C105A G140U, at most -4.2; as for U4G G11U A20U A28U U56A C85U C99U U151A, at most -4.2. As for U4A U56A G83C G100U, the figure is at most -4.2. Under U4G A91U A106G stands at most -4.2.
